Experimental data reported in the supplement of paper PMC3334620.
The full ranking holds about 33,000 sequences; the median of “E-score (-0.5 to 0.5)” is about -0.04, and the highest 2% start at about 0.36. The list shows a part of the results.

What follows are sequences tested against T1, Hmlalpha2 (UniProt P0CY09) (assay: PBM E-score (8-mer binding enrichment) (E-score (-0.5 to 0.5)); higher = stronger / more preferred TF binding; most listed sequences are background and not binding sites). Conditions: protein concentration: 200 nM; construct: GST-full length.
T1 sequence: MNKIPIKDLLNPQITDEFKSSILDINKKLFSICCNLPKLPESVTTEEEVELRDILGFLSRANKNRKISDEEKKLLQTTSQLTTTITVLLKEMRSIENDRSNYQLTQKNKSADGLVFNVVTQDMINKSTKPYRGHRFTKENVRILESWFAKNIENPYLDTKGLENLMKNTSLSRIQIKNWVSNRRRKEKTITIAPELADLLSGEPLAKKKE
Method in brief: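 Full-length yeast transcription factors or their DNA-binding domains, GST-tagged and expressed with PURExpress, were applied at about 100-200 nM to universal all-10-mer Agilent arrays. These arrays had been made double-stranded by primer extension on fresh or once-stripped slides. Detection used fluorescent anti-GST, normalisation used masliner, and E-scores for ungapped eight-base words pooled with reverse complements came from the Universal PBM Analysis Suite.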

Sequence | PBM E-score
CCCTGTAA | 0.325
CTAGTTGA | 0.145
AGTCTAAG | -0.118
CAGCTTGA | -0.0036
GCAGTTCC | -0.213
AGTACATA | 0.401
ATTCTCAA | 0.151
AGGTTAAA | 0.151
ACACAGAC | 0.343
CGAGGGCG | -0.23
ACCATATC | -0.211
ATATATGG | -0.0139
AAACGCAA | 0.259
GTGTGGTA | 0.156
GTGCTCGA | -0.071
CGCAATAC | 0.362
GAGCATCC | -0.257
AGTGCAAC | -0.0293
GCCGATCC | -0.245
GTGGTGCA | -0.15
GCCAAATA | -0.0471
CCATCTGC | -0.116
AACCAGAC | 0.178
GAGATGAC | -0.198
CGACTCCA | -0.228

Sequence | PBM E-score
GGTCGATA | -0.128
ATACGGCC | 0.00671
CGGACATA | 0.0379
CCCCATCG | -0.159
TATTAGCA | 0.0301
GACAGCCC | -0.261
CCGTAGGC | -0.0439
ACATGCAC | 0.36
CTGATTAC | 0.369
GGATAGTA | 0.0947
GTCACCGA | -0.0552
CTCGACAC | 0.237
CTATTGGA | -0.0573
CTAGGGAA | -0.17
AGTCTCAT | -0.176
CTGTATTA | 0.191
ACCGCCCG | -0.258
CCCAGTTA | -0.186
CACATGTA | 0.416
CGTTGGTA | 0.3
ATAATATC | 0.142
CCCAGTGA | -0.249
GACTTTGA | -0.0221
AAGTCGGG | -0.17
CGCAACAC | 0.161

Sequence | PBM E-score
GCGCAACC | -0.228
AATTATTA | 0.293
CTCCCCAA | -0.0936
CCGATATA | -0.0244
GTTCCCAA | -0.0581
CGCTAGCC | -0.269
CTCCTCAA | -0.264
CCTTTTCG | -0.0594
ACGTCTAA | 0.103
CTTAGGCC | -0.245
AGTTGCCG | -0.0501
CCGTTCAG | -0.333
ATCTAAAG | 0.147
CACGGTAA | 0.115
GCGCATAC | 0.127
CATTACGG | -0.0532
GGTCTAGA | -0.162
AAGAGTGG | -0.248
GATCCCCC | -0.293
GGAACCAA | -0.028
GAACGTTA | 0.0373
ACACAGGC | 0.29
GGATACTA | -0.0326
TAACGCAA | 0.34
CCGCGTAG | 0.294

Sequence | PBM E-score
GCTAAGCC | -0.218
GATGATGC | -0.199
GTGCCATA | -0.096
CCGTCCAG | -0.255
AACGCGCG | 0.274
CTCCGGAC | -0.134
GGTCTCGA | 0.0586
GACGGTCA | -0.196
ACCGAGGC | -0.359
GGGATACA | 0.0798
GGCAGCGA | -0.24
ATGGAAAT | 0.154
CCCCTAGA | -0.328
AGAAATCA | 0.129
CCACACAC | 0.0345
CGACGGAA | -0.11
GCGAGGAC | -0.35
GTCACAAC | 0.14
AGTTCATA | -0.0382
CTTGCTTC | 0.0506
AAGCACCG | -0.224
ATAGGGAT | 0.00772
GCGCCTGA | -0.0712
CACTGGAC | 0.0737
CTCTGGAA | -0.196

Sequence | PBM E-score
CCTCGGCA | -0.138
ACAACAAA | 0.284
TCCCGGGA | -0.237
ACTACTTA | 0.0652
CCGAGATA | -0.0216
AAACCGCG | 0.0553
CGAGCAAA | -0.102
GGCCAGAA | -0.0427
CGCTTCGA | -0.126
CAGACGAA | 0.121
GTCATTAA | 0.169
GACAGATA | 0.119
CAGCTACG | 0.0373
CATGCTTC | 0.18
CGCGGTCC | -0.202
AAATGAAC | 0.177
CAACGGCA | -0.019
GGCAGTTA | 0.0486
GATCGCAA | -0.0803
GCCACGTA | 0.202
CTATCTGC | -0.27
GGGAAATA | -0.0445
CCCGCAGC | -0.254
GAACGTCC | -0.031
AACTATGA | 0.0334

Sequence | PBM E-score
TAGAAAAA | 0.106
ATGGTAAC | 0.223
CCATCGAC | -0.234
ATCGATAC | 0.0838
AGGATAAC | -0.0626
ACTTAGTG | 0.0328
AGGCCATA | -0.303
AGTGATGG | -0.127
CACCTGGG | -0.191
AGCCACGA | -0.159
GTTGGTTA | 0.234
AGTTTACG | 0.278
AGTCTTAT | -0.0259
CTACGCAA | 0.28
CCTAGCAG | -0.215
CAATGATA | 0.0661
ATTCTTCG | 0.0234
CCTCACAG | -0.09
GTTTGGTA | 0.124
AGTTCACC | 0.0459
CGTGATAA | 0.211
GAGGCCAC | -0.0131
CTGCATAA | 0.128
AAAGCCTT | -0.211
GTGGCCCA | -0.191

Sequence | PBM E-score
AGGTAATA | 0.139
ATCCCTCG | -0.182
AGGCCACA | -0.166
TCCCCAAA | -0.0725
AATACAGC | 0.0849
CTGATCGA | -0.154
CAAAAGCC | -0.172
CGATTGTC | 0.11
AGGTCGTG | 0.084
GAAGGTAC | 0.0117
ACTTCATC | -0.116
CCGCGGCG | -0.249
GACGCCTA | -0.207
CCAGTGAA | -0.193
AAGACTCG | -0.124
CAAGACCC | -0.124
CAGCGCAG | -0.0959
CACGCTGA | 0.0967
AGCACAAC | 0.175
ACCGAACT | -0.121
CTGGTTTC | -0.195
AAGGCTGA | -0.209
AAATTGTG | 0.0827
AAGAACAC | 0.343
CAGTGCAC | -0.229

Sequence | PBM E-score
AAAAACAC | 0.291
ACCTGACC | -0.165
GACCCCAC | -0.192
GAGAACCC | -0.337
GGTCGTGA | -0.1
ATACTTTG | 0.125
TCAATGGA | -0.0655
CTCTTATA | 0.0306
AATTATCT | -0.0497
AGATGCAG | 0.0314
GTAGCGTA | 0.066
AGTGTGCA | 0.113
CTGGCGGC | -0.239
ACGTTGAT | 0.194
CAAGACGA | 0.0184
CATAGGTA | 0.244
ACAGCCCA | 0.0329
ATTTGAGC | -0.00795
CCGACCGG | -0.275
CGATGCAA | -0.144
ATGACATA | 0.324
ATTCGATG | 0.0784
ATCGCTCA | -0.129
AGCCATGA | -0.116
AACATTTA | 0.242

Sequence | PBM E-score
GGGAGCCC | -0.334
TAACTTCA | 0.133
AAAGAACA | 0.283
CTGTTGTA | 0.253
CAGATTAG | -0.131
GACAACAA | 0.244
AGTGAAGA | -0.0801
AATTTTCC | 0.0164
GAGTGCAC | -0.155
AGAGATAT | 0.0274
AGCGGAAG | -0.194
CGGGAAAA | 0.0469
CCTATAAA | -0.158
GCCGGCGA | -0.285
ATTTTGCA | 0.162
GACCGGCC | -0.264
AGCCGTAT | -0.0624
CCAGTGCC | -0.265
ACGCAGCC | 0.224
AAAAGCCG | -0.159
AAATTAGT | 0.115
AATCAAAA | 0.0538
CCGCGCAC | -0.178
ACGTAGTC | 0.0592
CAATTAAC | 0.289

Sequence | PBM E-score
CCCGCCGG | -0.287
GAGGCAGA | -0.265
CCAGTACA | 0.197
ATCTTGAC | -0.098
AGGGGTTC | -0.344
AATTGGCA | -0.0269
GGTCCAGA | -0.0593
CGTGAATC | 0.0398
GTTCCGCA | -0.15
AGGTGGAC | -0.142
GAACGGTA | 0.0762
AACGTACG | 0.186
ACGTGAAT | 0.21
ACTGCCTG | -0.0553
CGTCTACC | -0.0439
GCGGCTAC | 0.0144
ACGATGCG | 0.119
AAGTAGAT | 0.0114
CGCTCACG | -0.0819
ATAAAATA | 0.269
CCGCCCCG | -0.252
AAACGTCC | -0.115
GTGTTCGA | 0.187
CGTTTTCA | 0.104
ACTTCTTG | 0.0173

Sequence | PBM E-score
GCTTCACA | 0.114
AATCTCAG | -0.157
AGTCGCAT | -0.057
ATTATGAA | 0.113
GCGAGCAC | -0.172
GCTCAAAC | 0.139
CTCATACC | -0.0108
GATTGGGA | -0.244
GATGTCGC | -0.0917
CGCTAGTA | -0.0238
CTGGTGGC | -0.194
CGACATAC | 0.114
AGTTGGAT | -0.00109
AGTTACAC | 0.426
GCAGGATA | -0.059
GACGGCAC | -0.252
ATATAGAG | -0.187
CAGAATCG | -0.162
ACCTCCTA | -0.17
AAGCGGGT | -0.171
ATTCCCTC | -0.173
GAACAGAA | -0.109
CCTTAAGA | -0.203
GTAAAGTA | 0.354
AACCAGAG | -0.0148

Sequence | PBM E-score
CAAGTGTC | 0.0177
GCACGACC | -0.188
CCAATGTA | 0.157
CGTTACTC | 0.0233
CCGGTTAA | -0.0848
CGCAGGTA | 0.118
AGCCGGAC | 0.0571
CGCCCCCC | -0.332
GGGGAGAA | -0.237
AATTGGCC | -0.176
ATTTATAC | 0.292
GCCTTCCA | -0.35
TATCATGA | 0.123
GACCCGAC | -0.283
CCAAACGG | -0.32
ACCTTATA | -0.0304
ACCTAGAA | 0.0631
CTTATAAC | 0.284
ATACAGCG | 0.00439
GCTCAGTA | 0.152
ACGAGTAA | 0.219
AAAGTTTG | 0.0346
CTACCCAC | -0.23
CTCGGCCA | -0.163
ACAATTCA | 0.119

Sequence | PBM E-score
TCCTGTAA | 0.274
ATGTATTC | 0.443
ACACCTGC | 0.0902
CTGCGAGA | -0.213
ACCTACTG | -0.13
CGTGCACC | -0.205
ACTGCTGG | -0.326
GATCACCC | -0.182
CGGAATTC | -0.0647
ACCGTGCC | -0.298
CTTATTAC | 0.27
CCCGGGCG | 0.0279
ACGTACTG | 0.0905
CACGTAGG | 0.0707
ACGTGCTC | 0.0521
CAGAAGCA | -0.107
ATACTAAC | 0.137
ACGGCTCA | -0.0622
ACGTATCG | 0.143
AGCGAGAA | -0.0609
CGCAGTGC | -0.0495
TCAACAGA | 0.149
CTTATCCA | -0.0319
CCATCCCG | -0.241
AAAAGATA | 0.0885

Sequence | PBM E-score
ACCATGGC | 0.0362
TATCTCAA | 0.172
AACCGATA | 0.116
AACTCCTG | -0.114
GATTTGCA | 0.0853
CGAGACCG | 0.00239
GGCAATAC | 0.131
GCCTTCGA | -0.209
AGTGGAAA | -0.0167
AAGCAGAC | -0.0944
CTTCATAC | 0.126
ATCAACAC | 0.399
ACATCTAG | 0.0527
TCTAGACA | 0.217
CTGAAAGA | -0.0885
CCGTGCGA | -0.0238
ATCGGGCC | -0.242
CTGTCGCC | -0.274
GCGAGTCC | -0.246
